From the BET-seq Pho4 binding data (Le et al. 2018)
This is one part of the list. Values were computed here from the reads of four pooled replicates and scatter widely.

target: T1, Pho4 (S. cerevisiae) (UniProt P07270); assay: relative binding free energy (BET-seq); higher = weaker binding; settings: reference: library average
T1 sequence: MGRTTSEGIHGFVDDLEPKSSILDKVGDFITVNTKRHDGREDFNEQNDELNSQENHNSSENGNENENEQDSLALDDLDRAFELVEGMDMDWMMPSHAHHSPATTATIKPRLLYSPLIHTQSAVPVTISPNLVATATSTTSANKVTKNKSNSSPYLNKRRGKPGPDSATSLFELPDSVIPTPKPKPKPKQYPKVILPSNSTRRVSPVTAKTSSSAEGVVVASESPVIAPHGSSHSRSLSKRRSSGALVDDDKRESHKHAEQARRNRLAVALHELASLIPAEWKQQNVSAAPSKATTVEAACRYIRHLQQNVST

| Sequence | relative binding free energy [kcal/mol] |
| --- | --- |
| ATGATCACGTGGTGAG | 0.08 |
| ATTTTCACGTGGACAG | 0.23 |
| GTTTGCACGTGCTGCG | 0.04 |
| AGTGTCACGTGACTGT | 0.25 |
| GTGTGCACGTGATAAT | 0.22 |
| GTGTACACGTGTTAGG | 0.13 |
| AGGGTCACGTGTCGAT | 0.04 |
| TGGGTCACGTGGCGTC | 0.04 |
| CGAGTCACGTGGGTGC | -0.04 |
| AAGATCACGTGGTGAT | 0.16 |
| TTTATCACGTGCTGTG | 0.05 |
| TTGGTCACGTGTGGCC | 0.19 |
| ATGGGCACGTGGCCTT | -0.16 |
| TGTGACACGTGGACAT | -0.03 |
| ATGTGCACGTGTTCAT | -0.11 |
| AGTAGCACGTGCTGTG | -0.18 |
| GCTAGCACGTGTAGGG | -0.02 |
| TGATACACGTGTGTCT | 0.19 |
| TGTGGCACGTGTTGCG | -0.09 |
| TGGTTCACGTGTTAGG | 0.32 |
| GTATACACGTGTCGTT | -0.05 |
| TTATACACGTGGGGGA | -0.17 |
| TGCGGCACGTGGAGGC | -0.06 |

| Sequence | relative binding free energy [kcal/mol] |
| --- | --- |
| ACGCGCACGTGGTGTT | -0.2 |
| TAGGTCACGTGAGGAG | 0.31 |
| TGTTGCACGTGAAATT | 0.2 |
| TCTTTCACGTGAAAGG | 0.42 |
| TGTGCCACGTGCGTTA | -0.21 |
| GAGGCCACGTGAGGTG | 0.18 |
| TGGTGCACGTGCGGGG | -0.12 |
| TGCGTCACGTGTTTTT | 0.14 |
| CTTAACACGTGTGTAT | -0.06 |
| TCTGTCACGTGTAGTC | 0.17 |
| AACTTCACGTGTGTTT | 0.33 |
| GTGTGCACGTGGCGAA | -0.11 |
| GTTCTCACGTGGCTTT | 0.19 |
| TGACGCACGTGGGTTT | -0.21 |
| ATTGGCACGTGGTGTC | -0.15 |
| GTGGTCACGTGATACG | 0.14 |
| AATTGCACGTGTATTG | -0.02 |
| ACGTCCACGTGGGGGG | -0.12 |
| TCGAGCACGTGGTTGA | -0.01 |
| TGGGGCACGTGTACTA | -0.05 |
| TTGGTCACGTGTGATT | 0.28 |
| TTGGGCACGTGACAGC | 0.02 |
| TTGAACACGTGGGAGC | 0.1 |

| Sequence | relative binding free energy [kcal/mol] |
| --- | --- |
| TGCATCACGTGATGTA | 0.38 |
| CGAGACACGTGGGGGT | -0.23 |
| TGGGACACGTGGGAAA | 0.04 |
| TTGTGCACGTGGAAAT | 0.13 |
| CTTTGCACGTGTGAGG | 0.13 |
| AATGGCACGTGGTATC | -0.16 |
| GCGGTCACGTGGTAGG | 0.15 |
| GATGGCACGTGGTCGG | -0.16 |
| CGGCGCACGTGTGGGC | -0.09 |
| AGGTGCACGTGAGCGC | 0.11 |
| TTTAGCACGTGTGTTA | -0.03 |
| TGGAGCACGTGATGCG | -0.02 |
| TGAGCCACGTGGGGAA | -0.12 |
| AGTGACACGTGGTATA | -0.17 |
| TTTATCACGTGATTCG | 0.12 |
| GTTTGCACGTGCGCTT | -0.1 |
| TCTAACACGTGTTGTT | -0.02 |
| GATCGCACGTGGAAGT | 0.19 |
| TAGTGCACGTGTCTGT | -0.12 |
| GTTGACACGTGAGGTC | 0.21 |
| CGGTGCACGTGGTGCA | -0.24 |
| TGGTGCACGTGTCAAG | -0.07 |
| TACTTCACGTGTAGGT | 0.17 |

| Sequence | relative binding free energy [kcal/mol] |
| --- | --- |
| AATAACACGTGGTATT | -0.09 |
| TTCATCACGTGTAGGC | 0.24 |
| GGTGTCACGTGTGTAC | 0.24 |
| TAATTCACGTGAGTTA | 0.35 |
| GATGTCACGTGATGAA | 0.44 |
| TTGGTCACGTGGGACA | 0.02 |
| ATTTACACGTGGTTAG | 0.15 |
| TAGGGCACGTGGTGGA | -0.02 |
| CGATTCACGTGGTAGT | 0.21 |
| TCATTCACGTGGTGGG | 0.37 |
| TATGACACGTGGTGAG | 0.14 |
| GTTCCCACGTGGTTTG | 0.03 |
| TGTATCACGTGTAACG | 0.19 |
| TGAGTCACGTGTATTT | 0.29 |
| TTTCTCACGTGGAAGG | 0.27 |
| GGGGTCACGTGTTCAG | 0.24 |
| ACGTTCACGTGGGATT | 0.22 |
| TAAATCACGTGTTTTG | 0.16 |
| GGTGGCACGTGTGCTC | 0.07 |
| TGAGTCACGTGTTCCG | 0.19 |
| TGTGCCACGTGGAGCG | -0.19 |
| GTTGACACGTGTCGAG | 0.14 |
| TGGCACACGTGTTGGC | 0.17 |

| Sequence | relative binding free energy [kcal/mol] |
| --- | --- |
| AATTTCACGTGAGGCA | 0.41 |
| TTCTGCACGTGGACGT | 0.09 |
| TTGTTCACGTGTGACA | 0.22 |
| AGTAGCACGTGCTTGG | -0.06 |
| ATTATCACGTGGGTTC | -0.01 |
| AGAATCACGTGGGATT | 0.04 |
| GTAAACACGTGGCTTT | 0.2 |
| AGCGTCACGTGTGTGA | -0.03 |
| GGGGGCACGTGTCATG | -0.16 |
| TTGGGCACGTGATTCG | 0.06 |
| TGGTGCACGTGCGCTT | -0.21 |
| TGCGACACGTGCGGGG | -0.22 |
| CGGTGCACGTGTTGGA | -0.05 |
| TAGATCACGTGTGATA | 0.23 |
| ATCTGCACGTGTGGTG | -0.06 |
| GGTTGCACGTGGTTAA | -0.02 |
| GTGTGCACGTGGCAGC | -0.06 |
| TGGGTCACGTGAGAGA | 0.36 |
| TGGCACACGTGTGAGT | 0.12 |
| GCTTTCACGTGATTTG | 0.36 |
| AAGTTCACGTGTAAAT | 0.5 |
| AAGTACACGTGTTGGC | 0.03 |
| GCGGTCACGTGTCGTG | 0.1 |
